The source of these data is PubChem BioAssay (NCI).

“And” between values parts separate entries of the source, which are not always exact repeats. Equal values may be shown once.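 Values below derive from 48-hour exposures of cells grown in 96-well plates, with endpoints linearly interpolated between the two concentrations bracketing the appropriate inhibition level. GI50 = concentration required for 50% inhibition of growth. Definition used: TGI = concentration required for complete inhibition of growth.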

This assay relates to NCI-H322M lung. Kind of assay: NCI anticancer screen, dose series, 48 h.
`C1=C\SS/C=C\SS/1`: the TGI is more than 100 µM.

Molecule `O=C(O)c1ccc(C2C(=O)N[C@@H]3CCC[C@H]23)cc1` (some centres not stated) came in with a TGI of more than 100 µM.

`Cc1cc(N(CCC#N)CCC#N)ccc1/C=C(\NC(=O)/C=C/c1ccccc1)C(=O)NN`: the TGI is more than 100 µM.

The molecule `CC(NC(=O)N(C)C)NC(=O)N(C)C` came in with a TGI of more than 10 µM.

`COC(=O)[C@H](Cc1ccccc1)NC(=O)CCCCCCC(=O)NO` had a TGI of more than 100 µM.

Molecule `COc1nc(C#CC(C)(C)C)nc(OC)n1` came in with a TGI of 99.2 µM.

As to `CCOC(=O)/C(C#N)=C\C=C(/Cl)c1ccc(Cl)cc1`, the GI50 was 23.4 µM and the TGI worked out at 45.3 µM.

Molecule `Cc1nc(C(N)=S)sc1C(=O)/C=C/c1c(O)ccc2ccccc12` registered a TGI of more than 100 µM.

`Cc1cc(I)cc(CN(C)CCCN2CCCC2)c1O`: the GI50 was 28.3 µM and the TGI is more than 78.7 µM.

Molecule `CC12CCCC3(CC(=O)C(C)(C)C3C(=O)C1)C2` (configuration not stated) had a TGI of more than 100 µM.

For the molecule `Nc1ccc(/C=C/C(=O)NCc2cc3cc(-c4ccc(C(=O)N5CCC(F)(F)CC5)cc4)cc(-c4ccc(F)cc4)c3o2)cn1`, the GI50 was more than 100 µM and the TGI is more than 100 µM.

Consider `O=c1oc2ccc(I)cc2c(=O)n1-c1ccc(Cl)cc1F`, for which the GI50 is 0.625 µM and the TGI stood at 17.4 µM.

As for `C=C(CN(C)C)C(=O)c1ccccc1[N+](=O)[O-]`, the GI50 is 19.4 µM; the TGI was > 100 µM and 35.5 µM.

In the case of `Cc1ccc(NC(=O)c2cc(S(=O)(=O)N3C(=O)NC(=O)NS3(=O)=O)c(S)cc2Cl)cc1`, the GI50 is 26.5 µM and the TGI was 75.2 µM.

Molecule `CC(C(=O)O)C(C)(O)C(=O)O` (configuration not stated) came in with a TGI of more than 100 µM.

As for `O=C1c2ccccc2NC(=S)[C@@H]2CCCN12`, the TGI is more than 100 µM.

Turning to `C=C1c2nc3ccccc3n2C=C(c2ccc(Cl)cc2)N1c1ccc(OC)cc1`, the TGI was more than 100 µM.

`CSc1n[nH]c(N)c1C(=O)Nc1ccccc1` came in with a TGI of more than 100 µM.

As for `CN(C)CC1CCC(CN(C)C)C1=O` (configuration not stated), the TGI was found to be 35.4 µM.

In the case of `C[C@H]1CCCC(O)C(O)[C@@H]2C[C@H](O[Si](C)(C)C(C)(C)C)C[C@H]2[C@H](O[Si](C)(C)C(C)(C)C)C(O)C(O)C(=O)O1` (some centres not stated), the GI50 was 22.2 µM and the TGI was more than 100 µM.

As for `c1ccc(N2N=C(c3ccco3)CC2c2ccco2)cc1` (configuration not stated), the TGI was more than 100 µM.

As for `Nc1ncnc2c1ncn2CC(O)CO` (configuration not stated), the TGI is more than 100 µM.

For `CN(C)CCNC(=O)c1cccc2nc(-c3ccccc3)oc12`, the TGI is more than 100 µM.

`O=C(N/N=C/c1cccc(F)c1)c1ccncc1` gave a TGI of more than 100 µM.

In the case of `COc1ccc(CN2CCC/C=C/CC(Cl)(Cl)C2=O)cc1`, the TGI was more than 100 µM.

Regarding `CCCCCCCCCCCCCCCC[N+]1(C)CCOCC1`, the GI50 was 4.53 µM and the TGI amounted to 19 µM.

On to `CC(C)(C)c1cc(C(=O)/C=C/c2ccc3c(c2)OCO3)cc(C(C)(C)C)c1O`, for which the TGI is more than 100 µM.

The molecule `OCc1ccc2c(c1)CC1(Cc3ccc(/C=N/O)cc3C1)C2` (configuration not stated) came in with a TGI of more than 100 µM.

`O=C(Nc1noc(-c2ccccc2)n1)c1ccccc1CNc1noc(-c2ccccc2)n1` yielded a TGI of more than 100 µM.

Regarding `COc1cc2c(cc1Cc1c(F)cccc1Cl)nc(-c1c(F)cccc1Cl)n2Cc1c(F)cccc1Cl`, the TGI is more than 100 µM.

`OC(c1cc2ccc(C(F)(F)F)cc2c2cc(C(F)(F)F)ccc12)C1CCCCN1` (configuration not stated): the TGI was determined as 3.44 µM.

With `c1c[nH]c(CN2CCOCC2)n1`, the TGI is more than 100 µM.

Take `N#Cc1ccc(NC(=O)C(CC(=O)OCc2ccccc2)NC(=O)OCc2ccccc2)cc1` (configuration not stated): the GI50 was more than 100 µM and the TGI is more than 100 µM.

As to `O=C(c1ccncc1)C1C(=O)c2ccccc2C1C1(O)c2ccccc2CC1C(O)c1ccncc1` (configuration not stated), the TGI is more than 100 µM.

Molecule `CC(=O)c1cnc2oc3ccc(O)cc3c2c1-c1ccccc1` had a TGI of more than 100 µM.

Take `CC(C)(C)C(=O)[CH-]C(=O)C(C)(C)C.CC(C)(C)C(=O)[CH-]C(=O)C(C)(C)C.CN(C)c1ccc([O-])cc1.CN(C)c1ccc([O-])cc1.[Ti+4]`: the GI50 was 74.8 µM and the TGI is more than 100 µM.

The molecule `C[C@]12CC[C@@H]3c4cc(I)c(O)cc4CC[C@H]3[C@@H]1CC[C@@H]2O` yielded a TGI of 18.6 µM.

On to `COc1ccc(CC2COc3cc(O)cc(O)c3C2=O)cc1O` (configuration not stated), for which the TGI is more than 100 µM.

With `CN(C)C(=O)O[C@H]1CN[C@H](C#Cc2cc3ncnc(Nc4ccc(OCc5cccc(F)c5)c(Cl)c4)c3s2)C1`, the GI50 was 3.67 µM and the TGI was more than 25 µM.

The molecule `C=C(C)C1C/C=C(/C)CCCC2(CCC3=C(CC(C(=C)C)C/C=C(/C)CCC3)O2)C(=O)C1` (configuration not stated) returned a TGI of more than 100 µM.

`CC(C)(Oc1ccc(/C=C/C(=O)c2ccc(Cl)cc2)cc1)C(=O)Nc1c(Cl)cccc1Cl` returned a TGI of more than 100 µM.

Regarding `CC(C)OC(=O)OCSc1ccccc1N=Cc1cccc([N+](=O)[O-])c1`, the TGI is more than 10 µM.

`O=C1OCC2=C1C(c1ccccc1)c1cc3c(cc1N2CCO)OCO3` (configuration not stated): the GI50 was 16 µM and the TGI is more than 50 µM.

The molecule `CC(=O)OC(Cn1cncn1)(Cn1cncn1)c1ccc(Cl)cc1Cl` yielded a TGI of more than 100 µM.

`O=c1[nH]nc(Cc2ccccc2)n1/N=C/c1ccncc1`: the TGI was more than 100 µM.

In turn, `CC(=O)c1ccc(O)c(CN(C2CCCCC2)C2CCCCC2)c1O` registered a TGI of more than 100 µM.

In turn, `O=[N+]([O-])c1ccc2c(c1)C1=NN(c3ccccc3)C(c3ccccc3Br)C1CCC2` (configuration not stated) came in with a TGI of more than 50 µM.

For `C=C1C(=O)O[C@H]2[C@H]1CC/C(COC(=O)NCC(C)c1ccc(CC(C)C)cc1)=C\CC[C@@]1(C)O[C@@H]21` (some centres not stated), the GI50 was 5.15 µM and the TGI stood at 10.1 µM.

Regarding `COc1ccc(C(=O)c2ccc([As]=O)cc2)cc1` (configuration not stated), the GI50 was 0.131 µM and the TGI is 0.268 µM.

For `CC(=O)OCc1c(O)c2c(c(O)c1COC(C)=O)C(=O)C=CC2=O`, the TGI worked out at 40.9 µM.

Take `CN(C)C(=S)/N=c1\ssc(=S)n1Cc1ccncc1`: the TGI is more than 100 µM.

Molecule `FC(F)(F)c1cc(C2SCc3nc4ccccc4n32)cc(C(F)(F)F)c1` (configuration not stated) displayed a TGI of more than 100 µM.

`COc1ccc(N(C(=O)Nc2ccc(Cl)c(Cl)c2)C2c3cccn3C(=O)N2c2ccc(Cl)c(Cl)c2)cc1` (configuration not stated) returned a TGI of more than 100 µM.

Consider `COc1cc(NC(C)=O)ccc1C(=O)NN1C(=O)/C(=C/c2ccco2)N=C1c1ccccc1`, for which the TGI was more than 50 µM.

Take `Cn1cc(C2=C(c3cn(C4CCN(Cc5ccccn5)CC4)c4ccccc34)C(=O)NC2=O)c2ccccc21`: the GI50 is more than 100 µM and the TGI is more than 100 µM.

As to `O=C(N/N=C/c1ccccc1O)c1ccccc1`, the GI50 is 1.77 µM and the TGI is more than 100 µM.

As to `NC(=O)N/N=C1\CC2C3CC4C2C4C13` (configuration not stated), the TGI is more than 100 µM.

Molecule `CCC(C(=O)C(=O)OC)P1(=O)OC(C)(C)CN1C(C)(C)C` (configuration not stated) displayed a TGI of more than 100 µM.

For the molecule `COc1cc2c(cc1OC)-c1cc3ccccc3c(=O)n1CC2`, the TGI is more than 100 µM.

The molecule `N#Cc1nc(C2CCC2)oc1N` showed a TGI of more than 100 µM.

On to `c1ccc2[nH]c(-c3ccc(Nc4nc(N5CCCCC5)nc(N5CCOCC5)n4)cc3)nc2c1`, for which the GI50 is 4.72 µM and the TGI was more than 100 µM.

As to `COc1ccc(OC)c(Cn2cc3c(c2-c2ccccc2)CCc2cnoc2-3)c1`, the GI50 was 8.43 µM and the TGI was more than 100 µM.

The molecule `O=[N+]([O-])c1ccc(-c2ccc(-c3csc(Nc4ccccc4)n3)o2)cc1` displayed a TGI of more than 100 µM.

Molecule `O=c1cc(-c2cc(O)c(O)c(-c3c(O)cc4oc(-c5ccc(O)c(O)c5)cc(=O)c4c3O)c2)oc2cc(O)cc(O)c12` came in with a TGI of more than 25 µM.

Consider `CCON1CC(C(=O)OC)=C(O)C1=O`, for which the TGI was more than 100 µM.

As for `CCCCn1c(-c2ccc(C(=O)O/N=C(\N)c3ccc4c(c3)OCO4)cc2)nc(-c2ccccc2)c1-c1ccccc1`, the GI50 is 5.22 µM and the TGI was more than 100 µM.

In the case of `CNC(=O)CCCNC(=O)CCCC(=O)N(C)C`, the TGI is more than 100 µM.

Turning to `O=C1NCN(c2ccccc2)C12CCN(CCCN1CCN(CCOC(c3ccc(F)cc3)c3ccc(F)cc3)CC1)CC2`, the TGI worked out at 4.49 µM.

As to `COc1ccc2[nH]c3c(c2c1)[C@H](C)C[C@@H]1C(=O)N(c2ccccc2)C(=O)[C@H]31`, the TGI is more than 100 µM.

The molecule `O=C(O)[C@H](c1ccccc1)[C@@H](C(=O)O)c1ccccc1` returned a TGI of more than 100 µM.

As to `Cn1c2ccccc2c(=O)c2c(O)cc3c(c21)C=CC1(CCCCC1)O3`, the TGI was more than 10 µM.

`COc1cc2ccc1OCc1cccc(n1)COc1ccc(cc1OC)C=Nc1ccc(cc1)N=C2` registered a TGI of more than 100 µM.

With `C[N+](C)(C)CC1CCCCC1O` (configuration not stated), the TGI is more than 100 µM.

In turn, `COc1ccc(NC(=S)NC(=O)c2ccc3c(c2)Sc2ccccc2O3)c([N+](=O)[O-])c1` registered a TGI of more than 100 µM.

In turn, `Cc1ccc(C2=CC(=O)/C(=C\C(=O)c3ccc(Cl)cc3)O2)cc1` registered a TGI of more than 100 µM.

In turn, `COc1ccc(C(=O)NCCN(C)C)c2nc3ccccc3nc12` returned a TGI of 25.7 µM.

Take `CNC(=O)c1nn(C)c2c1C(C)(C)Cc1cnc(Nc3ccc(N4CCN(C)CC4)cc3)nc1-2`: the GI50 was 0.431 µM and the TGI is more than 10 µM.

Molecule `O=C(C(Cl)=C(N1CCOCC1)N1CCOCC1)C(Cl)Cl` came in with a TGI of more than 100 µM.

On to `CC(C)(C)c1cc(C=C(C#N)C#N)cc(C(C)(C)C)c1O`, for which the TGI is 25.6 µM and 77.9 µM.

Take `O=C(O)[C@@H](Cc1ccc2ccccc2c1)NC(=O)n1c2ccccc2c2ccccc21`: the GI50 was 5.68 µM and the TGI is more than 100 µM.

Regarding `c1c2c(cc(-n3nnc4c3CCCCCC4)c1-n1nnc3c1CCCCCC3)CCCCCC2`, the TGI amounted to 25.5 µM.

`COc1cc2c(c(O)c1OC)C(=O)C(Cc1ccc(O)cc1)CO2` (configuration not stated) came in with a TGI of more than 100 µM.

Regarding `O=C1CCCCN1CCCCC#Cc1cccc(C#Cc2cccnc2)c1`, the GI50 is more than 100 µM and the TGI was more than 100 µM.

In the case of `CSc1nnc(COc2ccc(Cl)cc2)o1`, the TGI was more than 100 µM.

`CSC(=NCCc1c[nH]c2ccccc12)NC#N` registered a TGI of more than 100 µM.

`Cc1ccccc1C(=O)N1CCN(C(=O)c2ccccc2C)CC1` showed a TGI of more than 100 µM.

In turn, `C=CC(OCC)(OCC)OCC` displayed a TGI of more than 100 µM.

`O=C(N/N=C/c1ccc(Br)cc1)N/N=C/c1ccc(Br)cc1` registered a TGI of more than 100 µM.

`N#Cc1nc(NC(=O)c2ccccc2C(=O)O)c(C#N)[nH]1` displayed a TGI of more than 100 µM.

As for `O=C(O)c1ccccc1/C=N/N=C1c2ccccc2-c2ccccc21`, the TGI was more than 100 µM.
